PubChem BioAssay AID1508624 (National Center for Advancing Translational Sciences (NCATS), 2021)
Screen size: about 48,000 compounds; about 120 (0.25%) were called active. Roughly 4% stayed inconclusive and do not appear here. Calls follow the shape of the dose curve; as a rule, active = well fitted activation curve with a large enough effect; inconclusive = small, poorly fitted or top-dose-only effect, or another doubt; inactive = no such curve, though single readings can be large or run the other way. Some of the results follow.

Assay: Primary qHTS for Identification of Small Molecule Activators of Huntingtin-Antisense Promoter Activity; also: nearly all actives have a fitted effect of over 55% in size
Conditions: HEK293 HTT-AS promoter firefly luciferase reporter (activity 0% = vehicle and -100% = no light), 24 h; series mostly up to 57.5 µM; activity change, positive = activation: at the top concentration
Method in brief: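 Luminescence was read after Dual-Glo reagent and a 10 min room-temperature incubation. Values were normalized to vehicle (0% activity) and zero RLU (-100% activity). Reporter HEK293 cells had been exposed to compounds (up to 57.5 uM final) for 24 h.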

Activity change, positive = activation, inactive:
Cc1cc(Cl)ccc1NC(=O)c1cccc(NC(=O)N2CCSc3ncccc32)c1 -14.8%
Cc1ccc(C(=O)CC2(O)C(=O)N(CCc3ccccc3)c3ccc(Br)cc32)cc1 (stereo unspecified) -38.9%
CCc1cccc(NC(=O)CN2C(=O)COc3ccc(S(=O)(=O)N4CCC(C)CC4)cc32)c1 -20.4%
CC(=O)Nc1ccc(S(=O)(=O)NC2(C(F)(F)F)C(=O)Nc3c2c(=O)[nH]c(=O)n3-c2ccc(C)cc2)cc1 (stereo unspecified) 3.3%
CCOCCCNC(=O)C(c1ccc(OC)cc1)N(Cc1cccs1)C(=O)CNC(C)=O (stereo unspecified) -7.75%
CCOC(=O)c1cc2c(=O)n3ccccc3nc2n(CCCOC)c1=NC(=O)c1cc2ccccc2o1 13.6%
COc1ccc(NC(=O)Cn2c(=O)n(Cc3ccccc3Cl)c(=O)c3cc(OC)c(OC)cc32)cc1 -5.7%
Cc1ccc(Cn2c(C)c3cnn(CC(=O)N4CCN(c5cc(C)ccc5C)CC4)c(=O)c3c2C)cc1 -50.8%
O=c1oc2ccc(Cl)cc2cc1-c1nc(-c2cccs2)no1 -7.49%
COc1ccc(NC(=O)Cn2c(=O)n(Cc3ccco3)c(=O)c3sc4ccccc4c32)cc1Cl -31.6%
Cc1ccc(N2CCn3c2nc2c3c(=O)n(Cc3cccc(Cl)c3)c(=O)n2C)cc1C -5.89%
CC(C)c1ccc(NC(=O)CN2C(=O)C3(SCC(=O)N3c3ccc(F)cc3)c3ccccc32)cc1 (stereo unspecified) -27.5%
O=c1c(-c2ccc(O)cc2)coc2cc(OC3O[C@H](CO)[C@H](O)[C@H](O)[C@H]3O)cc(O)c12 (stereo partly specified) 3.98%
O=C(Nc1ccc(Cl)cc1)c1ccc2c(c1)N(Cc1ccccc1)CCS2 1.76%
CCN(C(=O)CSc1nc2ccccc2nc1Cc1ccccc1OC)c1ccccc1 -7.75%
O=C(CN1C(=O)CCSc2ccc(S(=O)(=O)N3CCCC3)cc21)Nc1ccccc1Cl -1.5%
CCCC12CN3CC(CCC)(CN(C1)C3c1c[nH]c3ccc(OC)cc13)C2=O (stereo unspecified) 4.54%
CCCOc1ccc(CC2C(=O)Nc3ccc(Br)cc32)cc1 (stereo unspecified) -16.8%
Cc1nc(CC(=O)Nc2ccc(C(N)=O)cc2)cs1 -7.51%
CCSC1=NC2(CCN(C(=O)NC3CCCCC3)CC2)N=C1c1ccc(OC)cc1 -28%
CCOc1ccccc1CNC(=O)CCc1cn(C)c2ccccc12 -28%
CC(C(=O)NCc1ccccc1)n1ccc2cc(S(=O)(=O)N3CCCC3)ccc21 (stereo unspecified) -15.8%
CC(C)c1ccc(NC(=O)CSC2=Nc3ccccc3C3=NC(CCC(=O)NCc4cccs4)C(=O)N23)cc1 (stereo unspecified) -33.5%
CCOc1ccc(NC(=O)c2nn(C)c3c2COc2ccccc2-3)cc1 7.5%
COc1ccc2c(c1)c1c(c(=O)n(-c3cc(Cl)ccc3C)c(=O)n1Cc1ccc(F)cc1)n2C -19.1%
Cc1c(Cl)cccc1-n1ncc(C(=O)NC2CCCC2)c1C1CCN(C(=O)OC(C)(C)C)CC1 -3.84%
Cc1ccc(NC(=O)N2CCN3CCCCC3C2)cc1C (stereo unspecified) 10.5%
CCSc1ncc(Cl)c(C(=O)Nc2cc(C)ccc2C)n1 -1.44%
CC(=O)c1c(C)n(-c2cccc(Cl)c2)c2ccc(OC(=O)c3ccccc3)cc12 -8.13%
CCCOC(=O)c1c(-c2ccccc2)c(-c2ccccc2)nn(C)c1=O 18.8%
Cc1cc(C)c(-c2n[nH]c3c2C(c2ccccc2F)N(CCO)C3=O)c(O)c1 (stereo unspecified) -34.9%
COc1ccc(-c2[nH]c(-c3ccc(C)cc3)nc2SCC(=O)NCC2CCCO2)cc1 (stereo unspecified) -17.8%
COc1cccc(NC(=O)CSc2nc(=O)[nH]c3c2CCCC3)c1 -23.8%
CC1=NS(=O)(=O)c2cc(Cl)ccc2N1 0.145%
COC(=O)c1c(NC(=O)CS(=O)(=O)c2ccc(C)cc2)sc2c1CCCCC2 -23.4%
CCOc1cc2[nH]c(=O)n(CCC(=O)N3CCN(c4ccccc4)CC3)c(=O)c2cc1OCC -9.21%
Cc1ccc(-n2nc3c(N4CCCC(C(=O)NCc5ccccc5C)C4)nnc(C)c3c2C)cc1 (stereo unspecified) -7.95%
Cn1c(=O)n(C)c2cc(CNCc3ccccc3Cl)ccc21 -2.13%
COc1cccc(C(=O)NCc2cn3cccc(C)c3n2)c1 -3.38%
CCCn1c(=N)c(C(=O)NC(C)c2ccccc2)cc2c(=O)n3ccccc3nc21 (stereo unspecified) -10.9%
O=C(c1ccc(Cl)cc1)n1nc(-c2ccccc2)nc1NCc1ccco1 7.83%
CCOC(=O)Cc1ccc(NC(=O)Nc2nnc(N3CCCCC3C)s2)cc1 (stereo unspecified) -38.4%
COC1=C(OC)C(=O)C(CC=C(C)CCC=C(C)CCC=C(C)CCC=C(C)CCC=C(C)CCC=C(C)CCC=C(C)CCC=C(C)CCC=C(C)CCC=C(C)C)=C(C)C1=O 0.537%
COC(=O)c1ccc(NC(=O)c2c(-c3ccccc3)c(-c3ccccc3)nn(C)c2=O)cc1 -1.41%
O=C(Nc1ccc2c(c1)CCCN2C(=O)c1cccs1)c1ccccc1C(F)(F)F -17.6%
CCCN(C(=O)c1cc2c(s1)-c1ccccc1OC2)c1ccc(C(C)C)cc1 -11.8%
Cc1cccc(OC(=O)c2snnc2C)c1C -16.4%
CCC(=O)N1CCc2cc(Br)cc(S(=O)(=O)NCCc3ccc(C)cc3)c21 -30.8%
CCc1ccc(Nc2nc(-c3cc4cccc(OC)c4oc3=O)c(CC)s2)cc1 11%
CCOC(=O)c1ccc(NC(=O)Nc2cc3c(cc2N2CCCCC2)n(CC)c(=O)n3CC)cc1 -30.1%
COc1ccc(Br)cc1CNCc1c(C(=O)O)c(C)n(Cc2ccccc2C)c1C -25.2%
Cc1nc2cccnc2n1-c1cccc(C(=O)NCc2cccc(Cl)c2)c1 -35.4%
CCOc1ccc(-c2cc3nc(C4CCN(C(=O)OC(C)(C)C)CC4)c(C(=O)Nc4cccc(C(F)(F)F)c4)cn3n2)cc1 -11%
c1ccc2c(c1)CCc1ccccc1N2 11.5%
Cc1cc2c(cc1S(=O)(=O)CCC(=O)N1CCN(c3ccccc3)CC1)OCC(=O)N2 -20.6%
CCS(=O)(=O)N1CC(=O)N(c2cc(Cl)ccc2C)C(C)(C(=O)NC2CCCCCC2)C1 (stereo unspecified) -8.41%
CCCCCOC(=O)CSc1nc2sc3c(c2c(=O)n1Cc1ccccc1)CC(C)(CC)OC3 (stereo unspecified) -14.5%
CN1C(=O)C[C@H](C(=O)N[C@@H](Cc2cnc[nH]2)C(=O)N2CCC[C@@H]2C(N)=O)NC1=O -7.73%
COc1ccc(-c2nc3scc(CCNS(=O)(=O)c4cccs4)n3n2)cc1 -28.6%
COc1cccc(C(=O)NC2=NC(c3ccccc3F)CC(=O)N2)c1 (stereo unspecified) -13.3%
COc1cc(Cl)c(NS(=O)(=O)c2cc3[nH]c(=O)c(=O)[nH]c3cc2C)c(OC)c1 1.69%
Cc1ccc(-n2c(=O)c3c4c(sc3n(CC(=O)C(C)(C)C)c2=O)CCCCC4)cc1C -16.5%
CCc1ccc(-n2c(=O)c3sc4ccccc4c3n(CC(=O)NC3CCCC3)c2=O)cc1 -2.14%
COc1cc(OC)c(NC(=O)CCc2nc(C3=CCN(Cc4cccc(Cl)c4)CC3)no2)cc1Cl 16.4%
Nc1nc(N)c(S(=O)(=O)c2ccccc2)c(Nc2ccccc2)n1 -18.7%
COc1cccc(C2C(=O)N(C3CCCCC3)CC(=O)N2CCc2ccc(OC)c(OC)c2)c1 (stereo unspecified) -9.81%
CCc1ccc2c(c1)c(=O)c(S(=O)(=O)c1ccc(F)cc1)cn2CC(=O)Nc1ccccc1OC -18.3%
COc1ccc(-c2cc(C(=O)Oc3ccc(Br)cc3)c3ccccc3n2)cc1 16.5%
Cc1ccc(NC(=O)c2oc3ccccc3c2NC(=O)C2CCCCC2)cc1 3.9%
CCOC(=O)C1CCN(C(=O)c2ccc(C)c(NC(=O)c3nsc4ccccc34)c2)CC1 -12.5%
CCC(=O)N1c2ccc(S(=O)(=O)CCC(=O)NCc3ccc(OC)cc3)cc2CC1C (stereo unspecified) -24.7%
CCc1cccc(C)c1Nc1c(-c2cccs2)nc2ncccn12 -17.6%
O=S(=O)(Nc1ccc(OC(F)(F)F)cc1)c1ccc(N2CCCCS2(=O)=O)cc1 -18.7%
Cc1cc(C)c(NC(=O)CCN2CCCCC2)c(C)c1 0.128%
COc1ccc(NC(=O)COCc2cc(-c3ccco3)on2)cc1Cl -13.3%
O=C(Nc1ccc(F)c(F)c1)c1ccc(=O)n(Cc2ccc(F)cc2)c1 -18%
CC1=C(C(=O)Nc2cc(C)cc(C)c2)C2(CCCCC2)OC1=O -14.3%
CC(C)c1ccc(S(=O)(=O)NCc2nc3cccnc3n2Cc2ccc(F)cc2)cc1 -25.5%
Cc1cccc2c1-c1sc(C(=O)NCc3ccccc3Cl)cc1CO2 -14.4%
CCC(=O)N1CCc2cc(Br)cc(S(=O)(=O)CCC(=O)NCc3ccccc3)c21 13%
COc1cccc(NC(=O)c2cc(CN3CCOCC3)on2)c1 29.2%
COc1ccccc1CNC(=O)c1c2c(nc3ccccc13)C(=O)N(C1CCCCC1)C2 -18.8%
CCCCCCCCCCCCCCCC[N+](C)(C)Cc1ccccc1 -27.9%
CSc1cccc(NC(=O)CN(C)S(=O)(=O)c2ccc3c(c2)n(C)c(=O)c(=O)n3C)c1 2.74%
Cc1nn2c(=O)cc(COC(=O)c3ccc(C(C)(C)C)cc3)nc2s1 -5.6%
O=c1ccc2cc(S(=O)(=O)N3CCCC3)ccc2[nH]1 -13.8%
Fc1ccc(CNc2nc3c(-c4ccc(F)cc4)nnn3c3ccccc23)cc1 -1.23%
Cc1ccc(NC(=O)NCCc2c(C)nn(C)c2C)c(Cl)c1 1.94%
COc1cc(C(=O)NCc2ccc3c(c2)CCN3C(=O)c2ccncc2)cc(OC)c1OC 17.1%
COc1cccc(/C=C/c2nc(C#N)c(N(C)Cc3ccccc3)o2)c1 -16.3%
COc1ccc(-c2noc(CSCC(=O)Nc3ccc(C)cc3Br)n2)cc1OC -22.1%
COCCCNC(=O)CN1C(=O)c2c(c3ccccc3n2C)C1c1ccc(OC)cc1 (stereo unspecified) -5.9%
CCCCSc1ncnc2c1sc1nc(N3CCOCC3)c3c(c12)CCCC3 -14.9%
CCOc1ccc(CNC(=O)COc2cc(=O)n(C)c3ccccc23)cc1 -2.66%
CC1=C(C(=O)Nc2ccc(C)cc2)C(c2ccccc2Cl)n2nnnc2N1 (stereo unspecified) -8.79%
Cc1ccc(Cn2c(C)c(CNC3CCCCC3)c(C(=O)O)c2C)cc1 -14.2%
